This experiment has as its system KMS11 cells. Nature of the experiment: cells. Conditions: Homo sapiens, KMS-11, 72 h, read-out: KMS11-lluc EC50.

A value given as a limit tells only on which side of the number the result lay.

Data on 23 molecules can be found in patent publication US8592455B2 (priority 2008, dated 2013).

The EC50 is the concentration that produces a half-maximal response. With `Cc1ccc(F)c(-c2cccc(C(=O)Nc3cnccc3[C@H]3C[C@@H](N)[C@@H](O)[C@@H](C)C3)n2)c1F` [Example 31, N-(4-((1R,3R,4S,5S)-3-amino-4-hydroxy-5-methylcyclohexyl)pyridin-3-yl)-6-(2,6-difluoro-3-methylphenyl)picolinamide], the 50% effective concentration (EC50) was found to be 1100 nM.

On to `C[C@H]1CN(c2ccncc2NC(=O)c2ccc(F)c(-c3ccccc3F)n2)C[C@@H](O)[C@@H]1O` [Example 114, N-(4-((3R,4R,5S)-3,4-dihydroxy-5-methylpiperidin-1-yl)pyridin-3-yl)-5-fluoro-6-(2-fluorophenyl)picolinamide], for which the EC50 turned out to be 640 nM.

For `C[C@H]1CN(c2ccncc2NC(=O)c2cccc(-c3c(F)cccc3F)n2)C[C@@H](N)[C@@H]1O` [Example 26, N-(4-((3R,4R,5S)-3-amino-4-hydroxy-5-methylpiperidin-1-yl)pyridin-3-yl)-6-(2,6-difluorophenyl)picolinamide], the EC50 was 290 nM.

`N[C@H]1CCC[C@@H](c2ccncc2NC(=O)c2ccc(F)c(-c3c(F)cc(O)cc3F)n2)C1` [Example 32, N-(4-((1R,3S)-3-aminocyclohexyl)pyridin-3-yl)-6-(2,6-difluoro-4-hydroxyphenyl)-5-fluoropicolinamide]: the concentration for a half-maximal effect (EC50) stood at 390 nM.

For `C[C@@H]1C[C@H](N)C[C@H](c2ccncc2NC(=O)c2ccc(F)c(-c3c(F)cc(O)cc3F)n2)C1` [Example 128, N-(4-((1R,3S,5S)-3-amino-5-methylcyclohexyl)pyridin-3-yl)-6-(2,6-difluoro-4-hydroxyphenyl)-5-fluoropicolinamide], the EC50 amounted to 260 nM.

Regarding `C[C@H]1CN(c2ccncc2NC(=O)c2ccc(F)c(C3CCCCC3)n2)C[C@@H](N)[C@@H]1O` [Example 16, N-(4-((3R,4R,5S)-3-amino-4-hydroxy-5-methylpiperidin-1-yl)pyridin-3-yl)-6-cyclohexyl-5-fluoropicolinamide], the concentration for a half-maximal effect (EC50) was found to be 1700 nM.

In the case of `N[C@@H]1C[C@H](c2ccncc2NC(=O)c2cccc(-c3ccccc3F)n2)CC[C@@H]1O` [Example 83, N-(4-((1R,3R,4S)-3-amino-4-hydroxycyclohexyl)pyridin-3-yl)-6-(2-fluorophenyl)picolinamide], the EC50 was over 10000 nM.

On to `N[C@H]1CCC[C@@H](c2ccncc2NC(=O)c2ccc(F)c(-c3ccc(F)cc3F)n2)C1` [Example 82, N-(4-((1R,3S)-3-aminocyclohexyl)pyridin-3-yl)-6-(2,4-difluorophenyl)-5-fluoropicolinamide], for which the EC50 was over 10000 nM.

For the molecule `N[C@H]1CCC[C@@H](c2ccncc2NC(=O)c2ccc(F)c(-c3ccc(O)cc3F)n2)C1` [Example 9, N-(4-((1R,3S)-3-aminocyclohexyl)pyridin-3-yl)-5-fluoro-6-(2-fluoro-4-hydroxyphenyl)picolinamide], the concentration for a half-maximal effect (EC50) came out at 1600 nM.

For `C[C@H]1CN(c2ccncc2NC(=O)c2ccc(F)c(-c3ccncc3F)n2)C[C@@H](N)[C@@H]1O` [Example 119, N-(4-((3R,4R,5S)-3-amino-4-hydroxy-5-methylpiperidin-1-yl)pyridin-3-yl)-3,3′-difluoro-2,4′-bipyridine-6-carboxamide], the half-maximal effective concentration (EC50) is 1200 nM.

As to `Cc1ccc(F)c(-c2cccc(C(=O)Nc3cnccc3[C@H]3C[C@@H](N)[C@H](O)[C@@H](C)C3)n2)c1F` [Example 30, N-(4-((1R,3R,4R,5S)-3-amino-4-hydroxy-5-methylcyclohexyl)pyridin-3-yl)-6-(2,6-difluoro-3-methylphenyl)picolinamide], the EC50 worked out at 2100 nM.

As to `Cc1ccc(F)c(-c2cccc(C(=O)Nc3cnccc3[C@@H]3CCC[C@H](N)C3)n2)c1F` [Example 28, N-(4-((1R,3S)-3-aminocyclohexyl)pyridin-3-yl)-6-(2,6-difluoro-3-methylphenyl)picolinamide], the half-maximal effective concentration (EC50) came to 2200 nM.

Consider `Nc1cc(F)c(-c2c(F)cccc2F)nc1C(=O)Nc1cnccc1[C@@H]1CCC[C@H](N)C1` [Example 100, 3-amino-N-(4-((1R,3S)-3-aminocyclohexyl)pyridin-3-yl)-6-(2,6-difluorophenyl)-5-fluoropicolinamide], for which the EC50 worked out at 280 nM.

Take `CCCOc1ccc(F)c(-c2nc(C(=O)Nc3cnccc3[C@@H]3CC[C@H](O)[C@H](N)C3)ccc2F)c1` [Example 64, N-(4-((1R,3R,4S)-3-amino-4-hydroxycyclohexyl)pyridin-3-yl)-5-fluoro-6-(2-fluoro-5-propoxyphenyl)picolinamide]: the EC50 was 5600 nM.

With `N[C@H]1CCC[C@@H](c2ccncc2NC(=O)c2ccc(F)c([C@H]3CC[C@@H](O)CC3)n2)C1` [Example 53, N-(4-((1R,3S)-3-aminocyclohexyl)pyridin-3-yl)-5-fluoro-6-((1s,4s)-4-hydroxycyclohexyl)picolinamide], the EC50 is over 10000 nM.

As to `Cc1ccc(F)c(-c2nc(C(=O)Nc3cnccc3[C@H]3C[C@@H](N)CC(C)(C)C3)ccc2F)c1F` [Example 11, N-(4-((1R,5R)-5-amino-3,3-dimethylcyclohexyl)pyridin-3-yl)-6-(2,6-difluoro-3-methylphenyl)-5-fluoropicolinamide], the EC50 worked out at 2600 nM.

In the case of `C[C@@H]1C[C@H](N)C[C@H](c2ccncc2NC(=O)c2ccc(F)c([C@H]3CC[C@H](O)CC3)n2)C1` [Example 55, N-(4-((1R,3S,5S)-3-amino-5-methylcyclohexyl)pyridin-3-yl)-5-fluoro-6-((1r,4r)-4-hydroxycyclohexyl)picolinamide], the 50% effective concentration (EC50) came to 4900 nM.

On to `Cc1ccc(F)c(-c2cccc(C(=O)Nc3cnccc3N3C[C@@H](N)[C@H](O)[C@@H](C)C3)n2)c1F` [Example 13, N-(4-((3R,4R,5S)-3-amino-4-hydroxy-5-methylpiperidin-1-yl)pyridin-3-yl)-6-(2,6-difluoro-3-methylphenyl)picolinamide], for which the half-maximal effective concentration (EC50) amounted to 670 nM.

As to `C[C@@H]1C[C@H](N)C[C@H](c2ccncc2NC(=O)c2cccc(-c3c(F)cccc3F)n2)C1` [Example 63, N-(4-((1R,3S,5S)-3-amino-5-methylcyclohexyl)pyridin-3-yl)-6-(2,6-difluorophenyl)picolinamide], the 50% effective concentration (EC50) is 530 nM.

In the case of `N[C@H]1CCC[C@@H](c2ccncc2NC(=O)c2ccc(F)c(-c3c(F)ccc(O)c3F)n2)C1` [Example 124, N-(4-((1R,3S)-3-aminocyclohexyl)pyridin-3-yl)-6-(2,6-difluoro-3-hydroxyphenyl)-5-fluoropicolinamide], the EC50 worked out at 780 nM.

For `C[C@@H]1C[C@H](N)C[C@H](c2ccncc2NC(=O)c2ccc(F)c(-c3c(F)ccc(F)c3F)n2)C1` [Example 129, N-(4-((1R,3S,5S)-3-amino-5-methylcyclohexyl)pyridin-3-yl)-5-fluoro-6-(2,3,6-trifluorophenyl)picolinamide], the EC50 turned out to be 1200 nM.

Regarding `C[C@H]1C[C@@H](c2ccncc2NC(=O)c2ccc(F)c(-c3c(F)cccc3F)n2)C[C@@H](N)[C@H]1F` [Example 139, N-(4-((1R,3R,4S,5S)-3-amino-4-fluoro-5-methylcyclohexyl)-pyridin-3-yl)-6-(2,6-difluorophenyl)-5-fluoropicolinamide], the EC50 was 1900 nM.

With `CCc1ccc(F)c(-c2cccc(C(=O)Nc3cnccc3[C@H]3C[C@@H](N)[C@@H](O)[C@@H](C)C3)n2)c1F` [Example 17, N-(4-((1R,3R,4S,5S)-3-amino-4-hydroxy-5-methylcyclohexyl)pyridin-3-yl)-6-(3-ethyl-2,6-difluorophenyl)picolinamide], the EC50 is 3500 nM.
